Measured values from publication PMC4336329 (PLoS ONE, 2015).
The campaign covered roughly 310,000 compounds. About 14,000 (4.5%) showed an effect of 50% or more. The effect is printed as a negative number. The list shows a part of the results.

Biological target: human ether-à-go-go-related gene (hERG) potassium channel (human, UniProt Q12809)
Test: primary screen, population patch clamp on CHO cells stably expressing hERG
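Further: peak tail current of the secondary pulse compared with the same well before compound.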

human ether-à-go-go-related gene (hERG) potassium channel, sequence (Q12809 whole entry, looked up): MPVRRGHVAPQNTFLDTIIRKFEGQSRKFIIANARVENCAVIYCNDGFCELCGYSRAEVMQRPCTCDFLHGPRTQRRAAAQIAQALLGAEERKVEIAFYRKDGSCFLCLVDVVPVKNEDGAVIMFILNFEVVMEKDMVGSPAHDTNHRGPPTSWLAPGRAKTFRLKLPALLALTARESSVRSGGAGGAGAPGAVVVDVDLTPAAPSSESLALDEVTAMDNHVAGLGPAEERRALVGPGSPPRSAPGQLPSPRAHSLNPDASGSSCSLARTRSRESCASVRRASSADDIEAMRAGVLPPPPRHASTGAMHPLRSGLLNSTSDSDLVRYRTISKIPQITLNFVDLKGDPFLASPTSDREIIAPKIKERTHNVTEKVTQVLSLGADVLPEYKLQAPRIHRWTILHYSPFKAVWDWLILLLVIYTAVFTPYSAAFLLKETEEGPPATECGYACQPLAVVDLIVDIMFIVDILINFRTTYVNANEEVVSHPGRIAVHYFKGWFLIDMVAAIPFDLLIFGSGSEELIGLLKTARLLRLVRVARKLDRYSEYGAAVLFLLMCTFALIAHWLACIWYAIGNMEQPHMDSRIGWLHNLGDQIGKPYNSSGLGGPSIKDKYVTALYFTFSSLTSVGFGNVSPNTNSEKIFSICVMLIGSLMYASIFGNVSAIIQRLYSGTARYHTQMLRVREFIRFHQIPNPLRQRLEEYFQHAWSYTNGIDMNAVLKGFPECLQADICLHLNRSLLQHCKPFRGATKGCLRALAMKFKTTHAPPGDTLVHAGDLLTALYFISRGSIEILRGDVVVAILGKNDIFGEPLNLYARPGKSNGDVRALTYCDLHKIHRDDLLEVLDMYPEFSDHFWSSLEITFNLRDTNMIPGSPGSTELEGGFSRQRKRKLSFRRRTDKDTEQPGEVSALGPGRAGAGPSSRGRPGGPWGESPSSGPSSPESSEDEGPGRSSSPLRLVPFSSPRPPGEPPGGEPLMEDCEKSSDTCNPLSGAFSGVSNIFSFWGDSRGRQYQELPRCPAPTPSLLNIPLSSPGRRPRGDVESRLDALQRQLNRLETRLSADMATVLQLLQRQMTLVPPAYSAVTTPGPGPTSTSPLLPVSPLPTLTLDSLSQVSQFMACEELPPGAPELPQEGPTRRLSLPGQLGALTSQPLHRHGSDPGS

Compound	hERG current change (%, negative = inhibition) at 10uM
O=S(=O)(c1cccc(-c2nnc(-c3cccnc3)o2)c1)N1CCCCC1	-25%
COc1ccccc1NC(=O)CSc1nnc(Cc2cccs2)n1C	5.99%
CCSc1nc(C2CC2)cc(-c2cccs2)c1C#N	-15.4%
CC(C)(Cc1ccc(O)cc1)NC(=O)CC(=O)N=Nc1c(O)[nH]c2cc(Br)ccc12	22.2%
CCOC(=O)c1cnc(SCC(=O)Nc2cc(OC)ccc2OC)nc1N	-4.84%
O=C(NCc1ccc2c(c1)OCO2)C1CCCN(S(=O)(=O)c2cccs2)C1 (centres unmarked)	1.56%
CN(Cc1ccc(F)cc1)C(=O)c1cccc(NS(=O)(=O)c2ccccc2)c1	-13.4%
CSc1nsc(/C=C/Nc2ccc(C)c(C)c2)c1C#N	15.9%
COc1cccc(C(=O)NNC(=O)c2ccccc2Br)c1	5.35%
C=CCc1c(C)nc2c(OC)cccc2c1Cl	-5.59%
O=C(NCC1CCCO1)C1CCN(S(=O)(=O)c2cccc3nonc23)CC1 (centres unmarked)	2.29%
CS(=O)(=O)Nc1ccc(S(=O)(=O)N2CCCC2)cc1	8.49%
Cc1ccccc1CC(=O)NCCN1CCCCC1	11.8%
c1ccc(-n2c(-c3ccco3)nnc2-c2ccco2)cc1	1.77%
CN(C)c1ccc(C(=O)OCC(=O)NCCC2=CCCCC2)cc1	-7.5%
CCCCN(CC)Cc1ccc(CNC(=S)Nc2ccccc2F)o1	-16.3%
CCN(CC)S(=O)(=O)c1ccc(C(=O)NCc2ccc3c(c2)cc(C)n3C)cc1	11.1%
COc1cccc(-c2cc(N)nn2C(=O)Nc2ccc(Cl)cc2)c1	2.17%
O=c1c(-c2ccc(Cl)cc2)[n+]([O-])c2ccccc2n1O	13.6%
Cc1ccc(Cl)cc1N1CCN(S(=O)(=O)c2c(C)[nH]c(=O)[nH]c2=O)CC1	8.11%
CC(=O)NC(=S)Nc1ccc(NC(=S)NC(=O)c2ccc([N+](=O)[O-])cc2)cc1	16.2%
O=C(Nc1ncccn1)c1cc([N+](=O)[O-])cc([N+](=O)[O-])c1	-1.33%
CCOc1ccccc1NC(=S)NCCc1ccc(F)cc1	-9.24%

Compound	hERG current change (%, negative = inhibition) at 10uM
COc1ccc(NS(=O)(=O)c2ccc3c(c2)oc(=O)n3C)c(OC)c1	9.04%
CCOc1c(Br)cc(C(=O)N2CCCN(C)CC2)cc1OC.Cl	19%
CC(=O)N1c2ccc(S(=O)(=O)N3CCC(C(=O)NC(C)c4ccccc4)CC3)cc2CC1C (centres unmarked)	-4.97%
COc1ccc(-c2n[nH]c3c2CN(C(=O)c2ccccc2)CC3)cc1	-6.13%
CC1CC(NC(=O)N(C)C)N(C)C(=O)N1 (centres unmarked)	3.3%
CC1Cc2ccccc2N1c1ncnc2c1nnn2Cc1ccccc1 (centres unmarked)	-0.652%
CCCCN(C)CCNS(=O)(=O)c1ccc2c(c1)n(C)c(=O)c(=O)n2C	2.36%
O=C(CCc1nc2ccccc2c(=O)[nH]1)Nc1cc(Cl)ccc1N1CCCCC1	4.58%
Cn1[nH]c(=O)c2ccccc2c1=O	4.37%
Cc1cc(C)n(C2CC(=O)N(c3ccccc3)C2=O)n1 (centres unmarked)	-1.31%
Cc1cc(C)c(OCC(=O)Nc2ccccc2N2CCCCC2)c(C)c1	4.55%
Cc1ccc(OCCN2CCCC2)cc1.O=C(O)C(=O)O	-3.76%
CCOc1ccc(NC(=S)N2CCCCCC2)cc1	-0.435%
CC12CN3CCN(CC(C3)/C1=N\NC(=O)Nc1cccc(Cl)c1)C2	-13.5%
O=S(=O)(Nc1ncccn1)c1ccc(Nc2ncnc3ccccc23)cc1	-10.8%
CCc1ccc(NC(=O)c2ccc(S(=O)(=O)NCc3cccnc3)cc2)cc1	0.0585%
N=C1C(c2nc3ccccc3[nH]2)=C(O)CN1NC(=O)COc1cccc(F)c1	-24.9%
CCOc1ccc(CCNC(=O)CCc2nnc3ccc(N4CCOCC4)nn23)cc1	-2.18%
O=C(NCc1ccco1)c1ccc(NC(=O)C2COc3ccccc3O2)cc1 (centres unmarked)	-2.61%
COc1ccc(-n2cc(-c3ccccc3)c3c(N4CC(C)OC(C)C4)ncnc32)cc1 (centres unmarked)	3.9%
C/C(=N\N=C(/N)SC1CC(=O)N(c2ccc(Cl)c(Cl)c2)C1=O)c1cccs1 (centres unmarked)	20.3%
Cc1c(C)n(CC(O)CN2CCOCC2)c2ccccc12.O=C(O)C(=O)O (centres unmarked)	-11.9%
COc1ccc(OCc2cc(C(=O)N3CCCC(O)C3)no2)c2ccccc12 (centres unmarked)	-13.3%

Compound	hERG current change (%, negative = inhibition) at 10uM
Nc1nnc(SCCCC(=O)c2ccccc2)s1	3.13%
COC(=O)c1csc(S(=O)(=O)N2CCOCC2)c1OC	17.8%
CCOc1cc(/C=N/NC(=O)C(=O)NC)cc(Br)c1O	19.3%
O=c1cc(O)c(-c2ccccc2)c(Cl)[nH]1	11%
O=C(c1cnn2ccccc12)N1CCN(C2CCCCC2)CC1	-9.39%
Cc1ccc2nc(NC(=O)C3CCCN(S(=O)(=O)c4cccnc4)C3)sc2c1 (centres unmarked)	-1.04%
CS(=O)(=O)N(CC(=O)N1CCOCC1)c1ccccc1	15.9%
CC(Oc1ccc2c(-c3ccccc3)cc(=O)oc2c1)C(=O)NC(Cc1c[nH]c2ccc(O)cc12)C(=O)O (centres unmarked)	16.2%
CC1=CC(C)(C)N=C(Nc2ccc(C)cc2)S1	-5.2%
Cc1cccc(Nc2nc(-c3ccc4c(c3)OCCO4)cs2)c1	10.8%
CC(=O)C(Cc1ccc(Cl)nc1)Cc1ccc(Cl)nc1	15.1%
Cc1cccc(OCCOCCSc2ncccn2)c1	-9.63%
Fc1ccccc1C1c2cccn2CCN1C(=S)Nc1ccc(Br)cc1 (centres unmarked)	17.8%
COC(=O)Cn1c2[n+](c3ccccc31)CC(O)CS2.[Br-] (centres unmarked)	5.92%
COc1cc(C(=O)Nc2nnc(CC(C)C)s2)c([N+](=O)[O-])cc1OC	17.1%
COc1cc(/C=N/NC(=O)c2cccc3ccccc23)cc(OC)c1O	-2.75%
CCCCNC(=O)CS(=O)Cc1nc(-c2ccc(C)cc2)oc1C (centres unmarked)	-17.5%
O=C(CCn1c(=S)[nH]c2ccccc2c1=O)NCCSCc1ccccc1	5.79%
C/C(CC(=O)Nc1cccc2c1CCCC2)=N\NC(=O)Cc1ccccc1	25.2%
Cc1cccnc1NC(=O)CCNC(=O)c1ccccc1Cl	52.5%
COc1oc(-c2ccccc2)nc1C(F)(F)F	-8.93%
COc1ccc(-c2csc(/C(C#N)=C\c3ccc(O)c([N+](=O)[O-])c3)n2)cc1OC	9.54%
CC(C)C(NC(=O)CN1C(=O)c2cccc3cccc1c23)C(C)C	20.1%

Compound	hERG current change (%, negative = inhibition) at 10uM
C[n+]1c2n(c3ccccc31)N=C(c1cc(C(C)(C)C)c(O)c(C(C)(C)C)c1)CS2.[Br-]	-77.6%
COc1ccc(N2CCN(c3nc4c(C)cccn4c(=O)c3/C=C(\C#N)C(N)=O)CC2)cc1	-23%
CC(=O)Nc1ccc2ccccc2c1	-7.46%
Cc1csc(SCc2nc3scc(-c4ccccc4)c3c(=O)[nH]2)n1	-4.64%
CCCCOC(=O)CSCC(=O)N1N=C(c2cccs2)CC1c1ccc(F)cc1 (centres unmarked)	-8.65%
Cn1cc(/C=N/NC(=O)c2ccccc2O)c2ccccc21	10.2%
Cc1c(C(=O)NCc2ccccc2)oc2ccc(S(=O)(=O)N3CCC4(CC3)OCCO4)cc12	-0.453%
CCCOC(=O)C1=C(C)OC23OC(N)=C(C#N)C12C(=O)c1ccccc13 (centres unmarked)	-16.1%
O=C(Nc1ccccc1F)c1ccc2c(c1)CCN2S(=O)(=O)c1ccccc1	19.5%
N#C/C(=C(/O)Cc1cccc2ccccc12)c1nc2ccccc2s1	22.5%
COc1ccccc1NC(=S)N(Cc1cccnc1)Cc1ccccc1Cl	-33.5%
Cc1ccc(S(=O)(=O)N2CCOC23CCN(C(=O)c2ccc(Cl)cc2Cl)CC3)cc1	-48.1%
Cc1ccc(C)c(NC(=O)NNC(=O)c2cc3ccccc3cc2O)c1	-20.4%
COc1ccc(C(=O)N2CCN(C3CCCCC3)CC2)c(OC)c1	-73.6%
CC1CCCCN1C(=O)Cn1cc(C(=O)c2ccco2)c2ccccc21 (centres unmarked)	-11.5%
Cc1ccc(NC(=O)C(C)[n+]2ccccc2)cc1[N+](=O)[O-].[Br-] (centres unmarked)	1.75%
COc1ccccc1NC(=O)Cc1noc(CSc2nnc(C)s2)n1	-4.77%
CN(C)CCN(C(=O)C1CCN(S(=O)(=O)c2cccs2)CC1)c1nc2c(F)cccc2s1.Cl	-16.4%
O=C(COc1ccc(/C=N/NC(=O)c2ccncc2)cc1)Nc1ccccc1	12%
Cc1c2cc(O)c(=O)cc-2oc2cc(O)c(O)cc12	-3.84%
